The target in the experiment is CXC chemokine receptor 4 (CXCR4), human (human, UniProt P61073 1-352). Nature of the experiment: cell-based or functional assay.
Sequence of UniProt P61073 (P61073 whole entry): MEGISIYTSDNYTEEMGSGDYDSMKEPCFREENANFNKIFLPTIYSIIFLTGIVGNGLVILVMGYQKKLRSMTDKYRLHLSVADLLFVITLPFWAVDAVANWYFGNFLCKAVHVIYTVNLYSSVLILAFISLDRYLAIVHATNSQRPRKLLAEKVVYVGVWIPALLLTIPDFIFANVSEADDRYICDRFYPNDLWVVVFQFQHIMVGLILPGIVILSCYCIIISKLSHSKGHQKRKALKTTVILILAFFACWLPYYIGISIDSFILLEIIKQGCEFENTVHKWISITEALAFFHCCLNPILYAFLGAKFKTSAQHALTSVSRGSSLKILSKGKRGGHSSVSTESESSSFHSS

B1: D-1K21 scFv (scFv)
scFv: [about 100 residues left out]RNLIAARPRNRGRDAFDIWGQGTMVTVSSKLSGSASAPKLEEGEFSEARVDIQMTQSPSTLSASVGDRVTITCRASQSIGGSLAWYQQKPGKGPNLLIYAASTLQSGVPSRFSGSGSGTEFTLTISSLQPEDSATYYCQHYESYPLSFGGGTKLEIKAAAGSEQKLISEEDLNSHHHHHH
With B1, the “ADCC, EC50 (ng/mL), scFv cross-linked with chimeric anti-cMyc IgG1” value was found to be 18.8 ng/mL and the “ADCC, EC50, scFv, molar” value turned out to be 0.7 nM.

(Values after patent US20160244527A1 (AFFITECH RESEARCH, published 2016).)
